# Measurements taken from the supplement of paper PMC8728848.
# The list shows a part of the results.
# Key:
# Assay in all cases: glycan array binding signal (z-score within array); higher = stronger binding
# Conditions in all cases: glycan notation: IUPAC condensed, linker removed
# [1] = target: GlcNAc(b1-2)[GlcNAc(b1-4)]Man(a1-3)[GlcNAc(b1-2)Man(a1-6)]Man(b1-4)GlcNAc(b1-4)GlcNAc
# Procedure, shortened: (§1)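 Glycan array binding is given as a within-array Z-score, which can be read as non-binding when negative. The arrays, 3228 of them, came from the Consortium for Functional Glycomics database and were retained only where the protein sequence was available. Z-scores were averaged across arrays of the same protein sequence at different concentrations or buffers and across linkers.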
# [2] = target: GlcNAc(b1-2)[GlcNAc(b1-4)]Man(a1-3)[GlcNAc(b1-4)][GlcNAc(b1-2)Man(a1-6)]Man(b1-4)GlcNAc(b1-4)GlcNAc
# Procedure, shortened: as §1
# [3] = target: GlcNAc(b1-2)[GlcNAc(b1-4)]Man(a1-3)[GlcNAc(b1-4)][GlcNAc(b1-2)[GlcNAc(b1-6)]Man(a1-6)]Man(b1-4)GlcNAc(b1-4)GlcNAc
# Procedure, shortened: as §1
# [4] = target: GlcNAc(b1-2)[GlcNAc(b1-4)]Man(a1-3)[GlcNAc(b1-4)][GlcNAc(b1-2)[GlcNAc(b1-6)]Man(a1-6)]Man(b1-4)GlcNAc(b1-4)[Fuc(a1-6)]GlcNAc
# Procedure, shortened: as §1
# [5] = target: GlcNAc(b1-2)[GlcNAc(b1-6)]Man(a1-6)[GlcNAc(b1-2)Man(a1-3)]Man(b1-4)GlcNAc(b1-4)GlcNAc
# Procedure, shortened: as §1
# [6] = target: GlcNAc(b1-2)[GlcNAc(b1-6)]Man(a1-6)[GlcNAc(b1-2)Man(a1-3)]Man(b1-4)GlcNAc(b1-4)[Fuc(a1-6)]GlcNAc
# Procedure, shortened: as §1
# [7] = target: GlcNAc(b1-2)[GlcNAc(b1-6)]Man(a1-6)[GlcNAc(b1-2)Man(a1-3)][GlcNAc(b1-4)]Man(b1-4)GlcNAc(b1-4)GlcNAc
# Procedure, shortened: as §1
# [8] = target: GlcNAc(b1-2)[GlcNAc(b1-6)]Man(a1-6)[GlcNAc(b1-4)][GlcNAc(b1-2)Man(a1-3)]Man(b1-4)GlcNAc(b1-4)GlcNAc
# Procedure, shortened: as §1
# GlcNAc(b1-3)Fuc = target: GlcNAc(b1-3)Fuc
# Procedure, shortened: as §1
# GlcNAc(b1-3)Gal = target: GlcNAc(b1-3)Gal
# Procedure, shortened: as §1
# [9] = target: GlcNAc(b1-3)Gal(b1-3)GalNAc
# Procedure, shortened: as §1
# GlcNAc(b1-3)Gal(b1-4)Glc = target: GlcNAc(b1-3)Gal(b1-4)Glc
# Procedure, shortened: as §1
# [10] = target: GlcNAc(b1-3)Gal(b1-4)GlcNAc
# Procedure, shortened: as §1
# [11] = target: GlcNAc(b1-3)Gal(b1-4)GlcNAc(b1-2)Man(a1-3)[GlcNAc(b1-3)Gal(b1-4)GlcNAc(b1-2)Man(a1-6)]Man(b1-4)GlcNAc(b1-4)GlcNAc
# Procedure, shortened: as §1
# [12] = target: GlcNAc(b1-3)Gal(b1-4)GlcNAc(b1-2)Man(a1-3)[GlcNAc(b1-3)Gal(b1-4)GlcNAc(b1-2)Man(a1-6)]Man(b1-4)GlcNAc(b1-4)[Fuc(a1-6)]GlcNAc
# Procedure, shortened: as §1
# [13] = target: GlcNAc(b1-3)Gal(b1-4)GlcNAc(b1-2)[GlcNAc(b1-3)Gal(b1-4)GlcNAc(b1-6)]Man(a1-6)[GlcNAc(b1-3)Gal(b1-4)GlcNAc(b1-2)Man(a1-3)]Man(b1-4)GlcNAc(b1-4)GlcNAc
# Procedure, shortened: as §1
# [14] = target: GlcNAc(b1-3)Gal(b1-4)GlcNAc(b1-3)Gal(b1-4)GlcNAc
# Procedure, shortened: as §1
# [15] = target: GlcNAc(b1-3)Gal(b1-4)GlcNAc(b1-3)Gal(b1-4)GlcNAc(b1-2)Man(a1-3)[GlcNAc(b1-3)Gal(b1-4)GlcNAc(b1-3)Gal(b1-4)GlcNAc(b1-2)Man(a1-6)]Man(b1-4)GlcNAc(b1-4)GlcNAc
# Procedure, shortened: as §1
# [16] = target: GlcNAc(b1-3)Gal(b1-4)GlcNAc(b1-3)Gal(b1-4)GlcNAc(b1-2)Man(a1-3)[GlcNAc(b1-3)Gal(b1-4)GlcNAc(b1-3)Gal(b1-4)GlcNAc(b1-2)Man(a1-6)]Man(b1-4)GlcNAc(b1-4)[Fuc(a1-6)]GlcNAc
# Procedure, shortened: as §1
# [17] = target: GlcNAc(b1-3)Gal(b1-4)GlcNAc(b1-3)Gal(b1-4)GlcNAc(b1-2)[GlcNAc(b1-3)Gal(b1-4)GlcNAc(b1-3)Gal(b1-4)GlcNAc(b1-6)]Man(a1-6)[GlcNAc(b1-3)Gal(b1-4)GlcNAc(b1-3)Gal(b1-4)GlcNAc(b1-2)Man(a1-3)]Man(b1-4)GlcNAc(b1-4)[Fuc(a1-6)]GlcNAc
# Procedure, shortened: as §1
# [18] = target: GlcNAc(b1-3)Gal(b1-4)GlcNAc(b1-3)Gal(b1-4)GlcNAc(b1-3)Gal(b1-4)GlcNAc(b1-2)Man(a1-3)[GlcNAc(b1-3)Gal(b1-4)GlcNAc(b1-3)Gal(b1-4)GlcNAc(b1-3)Gal(b1-4)GlcNAc(b1-2)Man(a1-6)]Man(b1-4)GlcNAc(b1-4)GlcNAc
# Procedure, shortened: as §1
# [19] = target: GlcNAc(b1-3)Gal(b1-4)GlcNAc(b1-3)Gal(b1-4)GlcNAc(b1-3)Gal(b1-4)GlcNAc(b1-2)Man(a1-3)[GlcNAc(b1-3)Gal(b1-4)GlcNAc(b1-3)Gal(b1-4)GlcNAc(b1-3)Gal(b1-4)GlcNAc(b1-2)Man(a1-6)]Man(b1-4)GlcNAc(b1-4)[Fuc(a1-6)]GlcNAc
# Procedure, shortened: as §1
# [20] = target: GlcNAc(b1-3)Gal(b1-4)GlcNAc(b1-3)Gal(b1-4)GlcNAc(b1-3)Gal(b1-4)GlcNAc(b1-2)[GlcNAc(b1-3)Gal(b1-4)GlcNAc(b1-3)Gal(b1-4)GlcNAc(b1-3)Gal(b1-4)GlcNAc(b1-6)]Man(a1-6)[GlcNAc(b1-3)Gal(b1-4)GlcNAc(b1-3)Gal(b1-4)GlcNAc(b1-3)Gal(b1-4)GlcNAc(b1-2)Man(a1-3)]Man(b1-4)GlcNAc(b1-4)[Fuc(a1-6)]GlcNAc
# Procedure, shortened: as §1
# [21] = target: GlcNAc(b1-3)Gal(b1-4)GlcNAc(b1-3)Gal(b1-4)GlcNAc(b1-3)Gal(b1-4)GlcNAc(b1-3)Gal(b1-4)GlcNAc(b1-2)Man(a1-3)[GlcNAc(b1-3)Gal(b1-4)GlcNAc(b1-3)Gal(b1-4)GlcNAc(b1-3)Gal(b1-4)GlcNAc(b1-3)Gal(b1-4)GlcNAc(b1-2)Man(a1-6)]Man(b1-4)GlcNAc(b1-4)GlcNAc
# Procedure, shortened: as §1
# [22] = target: GlcNAc(b1-3)Gal(b1-4)GlcNAc(b1-3)Gal(b1-4)GlcNAc(b1-3)Gal(b1-4)GlcNAc(b1-3)Gal(b1-4)GlcNAc(b1-2)Man(a1-3)[GlcNAc(b1-3)Gal(b1-4)GlcNAc(b1-3)Gal(b1-4)GlcNAc(b1-3)Gal(b1-4)GlcNAc(b1-3)Gal(b1-4)GlcNAc(b1-2)Man(a1-6)]Man(b1-4)GlcNAc(b1-4)[Fuc(a1-6)]GlcNAc
# Procedure, shortened: as §1
# [23] = target: GlcNAc(b1-3)Gal(b1-4)GlcNAc(b1-3)Gal(b1-4)GlcNAc(b1-3)Gal(b1-4)GlcNAc(b1-3)Gal(b1-4)GlcNAc(b1-2)[GlcNAc(b1-3)Gal(b1-4)GlcNAc(b1-3)Gal(b1-4)GlcNAc(b1-3)Gal(b1-4)GlcNAc(b1-3)Gal(b1-4)GlcNAc(b1-6)]Man(a1-6)[GlcNAc(b1-3)Gal(b1-4)GlcNAc(b1-3)Gal(b1-4)GlcNAc(b1-3)Gal(b1-4)GlcNAc(b1-3)Gal(b1-4)GlcNAc(b1-2)Man(a1-3)]Man(b1-4)GlcNAc(b1-4)[Fuc(a1-6)]GlcNAc
# Procedure, shortened: as §1
# [24] = target: GlcNAc(b1-3)Gal(b1-4)GlcNAc(b1-3)Gal(b1-4)GlcNAc(b1-3)GalNAc
# Procedure, shortened: as §1
# [25] = target: GlcNAc(b1-3)Gal(b1-4)GlcNAc(b1-3)GalNAc
# Procedure, shortened: as §1
# [26] = target: GlcNAc(b1-3)Gal(b1-4)GlcNAc(b1-3)[GlcNAc(b1-3)Gal(b1-4)GlcNAc(b1-3)]GalNAc
# Procedure, shortened: as §1
# [27] = target: GlcNAc(b1-3)Gal(b1-4)GlcNAc(b1-6)[Gal(b1-3)]GalNAc
# Procedure, shortened: as §1
# [28] = target: GlcNAc(b1-3)Gal(b1-4)GlcNAc(b1-6)[GlcNAc(b1-3)Gal(b1-3)]GalNAc
# Procedure, shortened: as §1
# [29] = target: GlcNAc(b1-3)Gal(b1-4)GlcNAc(b1-6)[GlcNAc(b1-3)]Gal(b1-4)GlcNAc
# Procedure, shortened: as §1
# GlcNAc(b1-3)GalNAc = target: GlcNAc(b1-3)GalNAc
# Procedure, shortened: as §1
# GlcNAc(b1-3)Man = target: GlcNAc(b1-3)Man
# Procedure, shortened: as §1
# [30] = target: GlcNAc(b1-3)[GlcNAc(b1-4)][GlcNAc(b1-6)]GlcNAc
# Procedure, shortened: as §1
# [31] = target: GlcNAc(b1-3)[GlcNAc(b1-6)]Gal(b1-4)GlcNAc
# Procedure, shortened: as §1
# [32] = target: GlcNAc(b1-3)[GlcNAc(b1-6)]GalNAc
# Procedure, shortened: as §1
# [33] = target: GlcNAc(b1-4)Gal(b1-4)GlcNAc
# Procedure, shortened: as §1
binder,measurement,setting,value
rAAL-2 (Agrocybe aegerita) (protein) MTSNVITQDLPIPVASRGFADIVGFGLDGVVIGRNAVNLQPFLAVKNFAQNAGGWLTTKHVRLIADTTGTGKGDIVGFGNAGVYVSVNNGKNTFADPPKMVIANFGYDAGGWRVEKHLRYLADIRKIGRADIIGFGEKGVLVSRNNGGLNFGPATLVLKDFGYDAGGWRLDRHLRFLADVTGNGHLDIVGFGDKHVFISRNNGDGTFAPAKSVIDNFCIDAGGWKIGDHPRFVADLTGDGTADIIGCGKAGCWVALNNGGGVFGQVKLVINDFGTDKGWQAAKHPRFIADLTGNGRGDVVGFGNAGVYVALNNGDGTFQSAKLVLKDFGVQQGWTVSKHRRFVVDLTGDGCADIIGFGEKETLVSYNDGKGNFGPVKALTNDFSFSGGKWAPETTVCWMANLDSSRH,glycan array binding signal (z-score),[1],0.091
same,glycan array binding signal (z-score),[2],-0.29
same,glycan array binding signal (z-score),[3],-0.333
same,glycan array binding signal (z-score),[4],-0.198
same,glycan array binding signal (z-score),[5],0.345
same,glycan array binding signal (z-score),[6],-0.07
same,glycan array binding signal (z-score),[7],-0.251
same,glycan array binding signal (z-score),[8],-0.611
same,glycan array binding signal (z-score),GlcNAc(b1-3)Fuc,1.48
same,glycan array binding signal (z-score),GlcNAc(b1-3)Gal,2.17
same,glycan array binding signal (z-score),[9],2.02
same,glycan array binding signal (z-score),GlcNAc(b1-3)Gal(b1-4)Glc,2.55
same,glycan array binding signal (z-score),[10],4.11
same,glycan array binding signal (z-score),[11],3.65
same,glycan array binding signal (z-score),[12],3.77
same,glycan array binding signal (z-score),[13],2.29
same,glycan array binding signal (z-score),[14],3.77
same,glycan array binding signal (z-score),[15],3.92
same,glycan array binding signal (z-score),[16],4.05
same,glycan array binding signal (z-score),[17],3.39
same,glycan array binding signal (z-score),[18],2.85
same,glycan array binding signal (z-score),[19],4.52
same,glycan array binding signal (z-score),[20],3.03
same,glycan array binding signal (z-score),[21],4.12
same,glycan array binding signal (z-score),[22],3.97
same,glycan array binding signal (z-score),[23],2.88
same,glycan array binding signal (z-score),[24],2.86
same,glycan array binding signal (z-score),[25],3.11
same,glycan array binding signal (z-score),[26],2.75
same,glycan array binding signal (z-score),[27],3.58
same,glycan array binding signal (z-score),[28],2.68
same,glycan array binding signal (z-score),[29],3.18
same,glycan array binding signal (z-score),GlcNAc(b1-3)GalNAc,0.798
same,glycan array binding signal (z-score),GlcNAc(b1-3)Man,0.515
same,glycan array binding signal (z-score),[30],-0.339
same,glycan array binding signal (z-score),[31],3.11
same,glycan array binding signal (z-score),[32],0.938
same,glycan array binding signal (z-score),[33],-0.344
